Results reported in patent US20090036382A1 (UNIVERSITA DEGLI STUDI DI PADOVA, published 2009).

Target: T1, endogenous emilin1 physiologically produced by HEK293T cells (UniProt Q9Y6C2 22-1016)
T1 construct: Not overexpressed; detected with anti-emilin1 antibody
T1 sequence (looked up): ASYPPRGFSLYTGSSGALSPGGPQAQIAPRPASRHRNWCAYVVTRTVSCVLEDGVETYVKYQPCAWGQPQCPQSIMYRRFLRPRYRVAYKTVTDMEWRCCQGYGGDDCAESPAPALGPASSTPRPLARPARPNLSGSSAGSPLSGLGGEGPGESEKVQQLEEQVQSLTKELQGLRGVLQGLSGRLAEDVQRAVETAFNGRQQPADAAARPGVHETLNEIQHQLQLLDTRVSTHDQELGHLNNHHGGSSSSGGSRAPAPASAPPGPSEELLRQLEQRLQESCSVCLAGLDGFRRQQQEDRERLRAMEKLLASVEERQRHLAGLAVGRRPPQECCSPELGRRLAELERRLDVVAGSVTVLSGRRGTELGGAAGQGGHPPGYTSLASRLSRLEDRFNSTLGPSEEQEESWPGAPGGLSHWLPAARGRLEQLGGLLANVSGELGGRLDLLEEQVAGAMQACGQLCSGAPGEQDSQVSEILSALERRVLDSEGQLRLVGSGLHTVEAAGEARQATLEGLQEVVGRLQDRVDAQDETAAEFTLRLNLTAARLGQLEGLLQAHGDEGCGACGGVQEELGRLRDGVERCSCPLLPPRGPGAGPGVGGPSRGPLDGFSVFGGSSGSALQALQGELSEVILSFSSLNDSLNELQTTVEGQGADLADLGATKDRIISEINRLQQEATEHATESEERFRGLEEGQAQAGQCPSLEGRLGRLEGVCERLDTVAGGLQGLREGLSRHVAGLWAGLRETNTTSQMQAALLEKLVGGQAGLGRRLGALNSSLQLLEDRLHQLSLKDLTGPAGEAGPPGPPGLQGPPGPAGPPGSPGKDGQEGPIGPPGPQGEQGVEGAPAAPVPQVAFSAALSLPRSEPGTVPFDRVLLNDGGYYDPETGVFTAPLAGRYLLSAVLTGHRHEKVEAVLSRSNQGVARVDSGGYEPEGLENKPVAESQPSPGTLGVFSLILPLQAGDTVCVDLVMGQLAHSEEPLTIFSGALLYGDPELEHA
Assay: immunoprecipitation of the culture medium with anti-LAP antibody, western blot with anti-emilin1 antibody
Description: Panel C: Immunoprecipitation of endogenous emilin after assembly with proTGF-β produced upon transfection. HEK293 cells were transfected with proTGF-β and culture medium was immunoprecipitated with anti-LAP antibodies. The immunoprecipitate was detected by Western-blot with anti-Flag antibody, that recognizes proTGF-β, or with anti-emilin1 antibody. Lane 1: control of immunoprecipitation specificity, lacking anti-LAP antibody (−); lane 2: Immunoprecipitation with anti-LAP antibody.
To ascertain that TGF-β interaction with emilin1 also occurs under physiological conditions of emilin 1 expression, HEK293T cells were transfected with the pro TGF-β encoding plasmid and culture medium was subjected to immunoprecipitation with anti-LAP antibody followed by western blotting with anti-LAP or anti-emilin1 (lower inset). Results are presented in FIG. 4C, showing that TGF-β co-precipitates also endogenous emilin1 (not overexpressed as result of transfection) physiologically produced by HEK293T cells. Therefore, it can be concluded that the interaction of pro TGF-β with emilin1 occurs also in presence of physiological levels of emilin1 expression.

B1: pro TGF-β1 (human TGF-β1 precursor) (ligand)
chain: not shown
notes: Expressed from pCDNA3.1 in HEK293T cells; It is treated here as one molecule; also called TGF-β precursor; Flag-proTGF-β1
Q: Does B1 bind?
A: binds
